Whole data set: some 33,000 sequences, median “E-score (-0.5 to 0.5)” near -0.035, cut for the highest 2% near 0.35. The list shows a part of the results.

The target of this assay is T1, Pdr3 (UniProt P33200).
T1 sequence: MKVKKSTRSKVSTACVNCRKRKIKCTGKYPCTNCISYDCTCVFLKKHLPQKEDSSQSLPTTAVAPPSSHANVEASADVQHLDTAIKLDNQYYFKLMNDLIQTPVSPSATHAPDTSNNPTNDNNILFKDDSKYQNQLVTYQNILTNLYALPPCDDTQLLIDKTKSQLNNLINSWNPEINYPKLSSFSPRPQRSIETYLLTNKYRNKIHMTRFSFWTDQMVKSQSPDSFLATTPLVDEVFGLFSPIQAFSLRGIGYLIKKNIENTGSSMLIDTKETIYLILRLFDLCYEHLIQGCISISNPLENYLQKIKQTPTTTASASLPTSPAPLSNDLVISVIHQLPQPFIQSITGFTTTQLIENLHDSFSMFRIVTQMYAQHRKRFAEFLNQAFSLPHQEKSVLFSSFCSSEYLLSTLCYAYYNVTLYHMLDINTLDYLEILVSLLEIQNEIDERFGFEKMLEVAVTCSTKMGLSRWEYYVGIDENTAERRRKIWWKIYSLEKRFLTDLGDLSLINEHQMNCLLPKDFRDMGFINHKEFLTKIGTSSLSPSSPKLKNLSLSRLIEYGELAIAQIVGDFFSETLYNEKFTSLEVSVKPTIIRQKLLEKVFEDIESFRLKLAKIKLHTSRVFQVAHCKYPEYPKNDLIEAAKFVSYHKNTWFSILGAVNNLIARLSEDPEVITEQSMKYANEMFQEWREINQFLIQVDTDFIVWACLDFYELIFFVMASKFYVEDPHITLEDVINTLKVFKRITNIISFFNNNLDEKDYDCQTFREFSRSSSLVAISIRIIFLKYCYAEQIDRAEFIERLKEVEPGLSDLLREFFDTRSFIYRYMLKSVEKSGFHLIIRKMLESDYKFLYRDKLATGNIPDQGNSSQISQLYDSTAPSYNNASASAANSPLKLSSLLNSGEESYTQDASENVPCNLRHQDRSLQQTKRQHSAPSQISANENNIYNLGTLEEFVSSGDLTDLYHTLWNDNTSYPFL
Description: PBM E-score (8-mer binding enrichment) (E-score (-0.5 to 0.5)); higher = stronger / more preferred TF binding; most listed sequences are background and not binding sites. Particulars: protein concentration: 200 nM; construct: GST-full length. As for the experimental part:
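Universal 'all 10-mer' protein binding microarrays (Agilent AMADID 015681) probed with GST-tagged S. cerevisiae TFs (full-length or DBD) made by in vitro transcription/translation (PURExpress), about 100-200 nM. Bound TF was detected with fluorescent anti-GST. Each ungapped 8-mer (which stands for itself and its reverse complement) is scored by the PBM enrichment score (E-score), a modified Wilcoxon-Mann-Whitney statistic from -0.5 to +0.5, computed with the Universal PBM Analysis Suite. Scale: above 0.35 generally sequence-specific binding.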
For ATCGTCGA, the “PBM E-score” value was -0.106.
The figure for GCTAGAAC is -0.192.
For the sequence CGTCCGCC, the “PBM E-score” value came to 0.218.
Regarding GATGCGGA, the “PBM E-score” value was 0.28.
With CCTGGAAC, the “PBM E-score” value was -0.0704.
The same measure for GGGTGCAC: -0.0725; for CCAGATCA: 0.112; for GTCTCTCA: -0.132.
In the case of ATAATACC, the “PBM E-score” value was found to be 0.136.
Regarding CAAATTAG, the “PBM E-score” value is -0.121.
AAATGTTA: the “PBM E-score” value was -0.0514.
For GGGCTGCA, the “PBM E-score” value was 0.0408.
The figure for GGCTGTAC is -0.0522; for ATCGACCC it is 0.0438; for AAGGATGG it is -0.108.
On to GGTAATGA, for which the “PBM E-score” value came to 0.0594.
With AGCCCGAA, the “PBM E-score” value was 0.101.
Consider CAAGTCGA, for which the “PBM E-score” value is -0.23.
For CGCACGAA, the “PBM E-score” value came to 0.0474.
On to GACTTCAA, for which the “PBM E-score” value is -0.172.
The figure for CCGGTGTC is 0.202; for ACTTGGTG it is -0.141.
As to ACAGCGTG, the “PBM E-score” value was -0.0566.
Take AGAGAACT: the “PBM E-score” value is -0.0529.
As for AAGCTATG, the “PBM E-score” value is -0.149.
Turning to TCGCTCCA, the “PBM E-score” value was -0.193.
The figure for GCACAACA is -0.104; for ACCACTGC it is -0.14; for AGGACGCA it is 0.0598.
The figure for GGTCGCTA is 0.0138; for GGTTTATA it is -0.0112.
The figure for GATCGTCA is -0.0471; for AAGAGCAG it is -0.0681.
As for ACTCGGAT, the “PBM E-score” value turned out to be 0.256.
As to AGAGCACA, the “PBM E-score” value came to 0.0122.
The figure for TACGACCA is -0.175.
ACCTATAT: the “PBM E-score” value came out at 0.123.
In the case of AATCGCTC, the “PBM E-score” value is -0.132.
Turning to CCGGTAGA, the “PBM E-score” value came to 0.166.
Turning to AAGTTATG, the “PBM E-score” value was determined as 0.0432.
The figure for ATCTACGA is -0.208; for GAAGTATC it is -0.00803; for ACTGGGAA it is 0.102.
Turning to ACGTGAGT, the “PBM E-score” value was -0.0439.
The figure for CAACCAGG is -0.201; for CAATTAGA it is -0.161.
As to CACGTGAC, the “PBM E-score” value was -0.134.
The figure for CCATCGGC is 0.124.
As to CTCTTCAC, the “PBM E-score” value is -0.207.
As for AATAATCA, the “PBM E-score” value came out at 0.0372.
Take GCTTTTGA: the “PBM E-score” value was -0.112.
The figure for CATCATGG is 0.00142; for AGCTCCAG it is -0.186.
In the case of CCGCGATA, the “PBM E-score” value was determined as 0.216.
As to CATTTTAA, the “PBM E-score” value is -0.0299.
For the sequence GCACGAGA, the “PBM E-score” value was -0.00462.
With GCCGGTTA, the “PBM E-score” value turned out to be 0.0864.
The same measure for AGCGATCC: 0.117.
The same measure for AGCTCCCT: -0.178; for GCTCTGGA: 0.114.
For CAGGCATG, the “PBM E-score” value is -0.0575.
The figure for AACGATGT is -0.0606.
Turning to CAGCGACG, the “PBM E-score” value was -0.0814.
Take GCTAGACC: the “PBM E-score” value is -0.188.
The figure for CATAGAAA is 0.0933; for GTTACGTA it is -0.385.
Take ATGCAGGA: the “PBM E-score” value is -0.19.
Turning to CTTAAGTA, the “PBM E-score” value is -0.138.
The figure for CCAATTCA is -0.0433.
Consider GGTAAATA, for which the “PBM E-score” value was -0.0254.
Regarding ACGGAGGG, the “PBM E-score” value turned out to be 0.2.
The same measure for CCTGTACA: -0.0365.
For the sequence AGTTACCA, the “PBM E-score” value stood at 0.0405.
The figure for AGCATGGC is 0.0141.
As to CATGTGCA, the “PBM E-score” value is -0.147.
The figure for CGCAAGAC is -0.189; for GCGGGATA it is 0.322.
AGGAGACG: the “PBM E-score” value is -0.262.
Turning to CCACACAG, the “PBM E-score” value amounted to 0.0645.
As for ATACATAA, the “PBM E-score” value is -0.0555.
With GCCATATA, the “PBM E-score” value is -0.0189.
Consider ACACAAGT, for which the “PBM E-score” value is -0.118.
For the sequence TAAGTCCA, the “PBM E-score” value is -0.0649.
The figure for ATTCTCTA is -0.127; for CCAGATGC it is -0.19.
For GACGCCCC, the “PBM E-score” value turned out to be 0.0316.
In the case of ATATCAGA, the “PBM E-score” value stood at 0.00537.
For the sequence TCCTCCGA, the “PBM E-score” value worked out at 0.151.
Turning to GTAGATAA, the “PBM E-score” value came to 0.0873.
Consider CGTGTTTC, for which the “PBM E-score” value is -0.00811.
As for TCGCCGAA, the “PBM E-score” value was 0.0457.
Turning to ATAACCAG, the “PBM E-score” value is -0.0465.
For the sequence ATCGCCAG, the “PBM E-score” value is -0.0615.
In the case of AAGCGTAG, the “PBM E-score” value was -0.148.
The same measure for AATGAGAT: 0.056.
On to CCAAAGAC, for which the “PBM E-score” value is 0.00235.
With ATTAGGTA, the “PBM E-score” value is -0.183.
For GCGCCGCA, the “PBM E-score” value came to 0.151.
GCGCATAA: the “PBM E-score” value was -0.0375.
On to ATCTTACC, for which the “PBM E-score” value worked out at 0.0425.
As for GCATAGGA, the “PBM E-score” value is -0.168.
The same measure for ATCTCCCA: -0.0664; for ACTAGGTG: -0.0965; for GAAGTGAA: 0.0811.
Take GTCCGCTA: the “PBM E-score” value was determined as 0.147.
AGCGCCCA: the “PBM E-score” value is -0.204.
With TGCCTAAA, the “PBM E-score” value is -0.208.
Consider CAACGCTG, for which the “PBM E-score” value was -0.0681.
With AGCGTTTA, the “PBM E-score” value is -0.272.

Values taken from the supplement of paper PMC3334620.
